Measured values from the supplement of paper PMC6135742.
Values joined by “and” are separate entries in the source; they are usually repeats but may differ in a detail not shown here. Equal values may be shown once. Where a name gives a salt, the structure may show the parent alone. ± gives the standard deviation of the averaged measurements. The full ranking holds about 2,600 compounds; the median of “MBP+ mature oligodendrocyte number relative to DMSO vehicle control” is about -0.34, and the highest 2% start at about 13. This is one part of the list.

What follows are molecules tested on jimpy (Plp1 jimpy) mouse iPSC-derived oligodendrocyte progenitor cells (assay: MBP+ mature oligodendrocyte number relative to DMSO vehicle control (SDs above negative control mean); higher = more surviving jimpy oligodendrocytes (rescue)). Conditions: 10 µM; 3 days.
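Also: 10 µM single dose with 3-day oligodendrocyte differentiation.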

| Compound | MBP+ mature oligodendrocyte number |
| --- | --- |
| C[C@]12CCC(=O)C=C1CC[C@@H]1[C@@H]2CC[C@@]2(C)[C@H]1CC[C@]2(O)C(=O)CO [Cortexolone] | 0.431 |
| COC(=O)C1=C(C)NC(C)=C(C(=O)OC(C)(C)CN(C)CCC(c2ccccc2)c2ccccc2)C1c1cccc([N+](=O)[O-])c1 (stereo not given) [Lercanidipine hydrochloride hemihydrate] | < -3.34 |
| O=C(Nc1cccnc1)c1cc(-c2ccnc(F)c2)ccc1OCc1ccccc1 | -0.282 |
| COc1cc2ncnc(Nc3cccc(Br)c3)c2cc1OC | -1.77 |
| COc1ccc(Cl)cc1NC(=O)Nc1cc(C)nc2ccccc12 | -4.52 |
| CN(C)CCC(c1ccc(Br)cc1)c1ccccn1 (stereo not given) [Brompheniramine hydrogen maleate] | -2.74 |
| COc1ccccc1N1CCN(CCCNc2c(C)c(=O)n(C)c(=O)n2C)CC1 [Urapidil, 5-Methyl-] | -0.354 |
| O=C1CC[C@@H](C(=O)N2CSC[C@H]2C(=O)O)N1 [Pidotimod] | 1.61 |
| Oc1c(Cl)cc(Cl)c2cccnc12 [Chloroxine] | -2.36 |
| c1ccc(-c2ccc(C(c3ccccc3)n3ccnc3)cc2)cc1 (stereo not given) [Bifonazole] | 52.3 |
| Nc1nccc(Oc2ccc(NC(=O)c3c[nH]cc(-c4ccc(F)cc4)c3=O)cc2F)c1Cl | 7.17 |
| C[C@H]1[C@H](C)CC[C@]2(C(=O)O)CC[C@]3(C)C(=CC[C@@H]4[C@@]5(C)CC[C@H](O)C(C)(C)[C@@H]5CC[C@]43C)[C@H]12 [Ursolic Acid] | -4.53 |
| O=C(c1ccc(F)cc1)C1CCN(CCn2c(=O)[nH]c3ccccc3c2=O)CC1 [Ketanserin tartrate] | -0.568 |
| O=C(c1ccc(F)cc1)C1CCN(CCn2c(=O)[nH]c3ccccc3c2=O)CC1 [Ketanserin] | -1.28 |
| NC(=O)Nc1cc(-c2cccc(F)c2)sc1C(=O)N[C@H]1CCCNC1 | < -5.15 |
| CCN(CC)C(=O)c1ccc(O)c(OC)c1 [Vanillic acid diethylamide] | -3.84 |
| NC1(C(=O)O)CC1 [1-Aminocyclopropanecarboxylic acid hydrochloride] | -1.73 |
| O=C1NC(=O)c2cc(Nc3ccccc3)c(Nc3ccccc3)cc21 | -2.51 |
| O=C(O)CCc1ccc(NCc2cccc(Oc3ccccc3)c2)cc1 | 2.04 ± 2.8 |
| CCCOc1ccc2[nH]c(NC(=O)OC)nc2c1 [Oxibendazole] | -4.34 |
| O=C(CCCCCN1CCN(c2ccccc2-c2ccccc2)CC1)NC1CCCc2ccccc21 (stereo not given) [LP 12 hydrochloride hydrate] | -2.39 |
| CSC(=N)N [S-Methylisothiourea hemisulfate] | 0.0294 |

| Compound | MBP+ mature oligodendrocyte number |
| --- | --- |
| CC(C)S(=O)(=O)N[C@H]1CCOC[C@@H]1c1ccc(-c2ccc(C#N)s2)cc1 | -3.15 |
| CCS(=O)(=O)N1CC(CC#N)(n2cc(-c3ncnc4[nH]ccc34)cn2)C1 | 0.342 |
| Cl.N[C@@H](CCC(=O)O)C(=O)O [L-Glutamic acid hydrochloride] | -0.701 |
| O=C1NCC2(CCN(CCc3ccccc3)CC2)O1 [Fenspiride HCl] | 21.6 |
| O=C1NCC2(CCN(CCc3ccccc3)CC2)O1 [Fenspiride hydrochloride] | 10.5 |
| Clc1ccc2c(c1)CCc1cccnc1C2=C1CCNCC1 [Desloratadine] | -5.93 |
| Cc1cnc(Nc2ccc(OCCN3CCCC3)cc2)nc1Nc1cccc(S(=O)(=O)NC(C)(C)C)c1 | < -6.01 |
| Cn1ncnc1[C@H]1c2n[nH]c(=O)c3cc(F)cc(c23)N[C@@H]1c1ccc(F)cc1 | -4.41 |
| CCCNC(=O)NS(=O)(=O)c1ccc(Cl)cc1 [Chlorpropamide] | 0.796 ± 2.8 |
| CCN(CC)C(C)CN1c2ccccc2Sc2ccccc21 (stereo not given) [Ethopropazine hydrochloride] | -3.46 |
| O=C(Cc1ccccc1)Nc1nnc(CCSCCc2nnc(NC(=O)Cc3ccccc3)s2)s1 | 0.502 |
| COc1ccc(-c2nc(N3CCOCC3)c3sc(CN(C)c4ncc(C(=O)NO)cn4)cc3n2)cn1 | < -6.01 |
| COc1cc(-c2ncn(/C=C\C(=O)OC(C)C)n2)cc(C(F)(F)F)c1 | -6.27 |
| N=C(N)NCCCCNC(=N)N [Arcaine sulfate] | -1.45 |
| CO[C@H]1/C=C/O[C@@]2(C)Oc3c(C)c(O)c4c(O)c(c5c(nc6cc(C)ccn65)c4c3C2=O)NC(=O)/C(C)=C\C=C\[C@H](C)[C@H](O)[C@@H](C)[C@@H](O)[C@@H](C)[C@H](OC(C)=O)[C@@H]1C [Rifaximin] | 1.96 |
| Clc1cccc(Cl)c1NC1=NCCN1 [Clonidine HCl] | -0.892 |
| Clc1cccc(Cl)c1NC1=NCCN1 [Clonidine hydrochloride] | -0.786 |
| CN1CCN(C2Cc3ccccc3Sc3ccc(Cl)cc32)CC1 (racemic) [(±)-Octoclothepin maleate] | -3.62 |
| C[C@]12C=CC(=O)N[C@@H]1CC[C@@H]1[C@@H]2CC[C@]2(C)[C@@H](C(=O)Nc3cc(C(F)(F)F)ccc3C(F)(F)F)CC[C@@H]12 [Dutasteride] | 2.99 |
| CCCCCCCCCCCCCCCC(=O)OC[C@H](O)[C@H]1OC(=O)C(O)=C1O [L-Ascorbyl 6-palmitate] | -1.84 |
| COc1ccc(C2(O)OC(=O)C(c3ccc4c(c3)OCO4)=C2Cc2cc(OC)c(OC)c(OC)c2)cc1 (stereo not given) | 1.07 |
| Cc1csc(-c2nnc(Nc3ccc(Oc4ncccc4-c4ccnc(N)n4)cc3)c3ccccc23)c1 | -2.2 |

| Compound | MBP+ mature oligodendrocyte number |
| --- | --- |
| Nc1nc2c(ncn2COC(CO)CO)c(=O)[nH]1 [Ganciclovir] | 0.369 ± 1.4 |
| NCCCCCC(=O)O | -0.287 |
| CC(C)CCNC(=O)[C@H](CC(C)C)NC(=O)[C@H]1O[C@@H]1C(=O)O [Loxistatin Acid (E-64C)] | -1.46 |
| c1ccc2c(CCNc3ccc(Nc4ccncc4)cc3)c[nH]c2c1 | < -6.7 |
| COc1ccc2c(Oc3ccc(NC(=O)c4c(C)n(CC(C)(C)O)n(-c5ccccc5)c4=O)nc3)ccnc2c1 | -1.01 |
| COc1c(C)cnc(Cn2cnc3c(Cl)nc(N)nc32)c1C | < -6.7 |
| Cc1nc2c([nH]1)-c1ccccc1N(C(=O)c1ccc(NC(=O)c3ccccc3-c3ccccc3)cc1)CC2 [Conivaptan HCl] | 1.07 |
| CNCCc1ccccn1 [Betahistine 2HCl] | 1.93 |
| CNCc1ccc(C)c(NC(=O)c2ccc(Nc3nc(-c4ccccc4)c4ccccc4n3)cc2)c1 | < -6.35 |
| O=C1Nc2ccc(Cl)cc2[C@@](C#CC2CC2)(C(F)(F)F)O1 [Efavirenz] | 2 |
| Nc1ccc(C(=O)O)c(O)c1 [Sodium 4-Aminosalicylate] | -0.861 |
| COc1cc(CCc2cc(NC(=O)c3ccc(N4CC(C)NC(C)C4)cc3)n[nH]2)cc(OC)c1 (stereo not given) | < -6.01 |
| O=C(O)c1ccccc1Nc1cccc(C(F)(F)F)c1 [Flufenamic acid] | 1.25 |
| O=C(O)Cn1nnc(-c2cc(N3CCC(Oc4cc(F)ccc4Br)CC3)no2)n1 | 4.3 |
| c1ccc(-c2nn3c(c2-c2ccnc4cc(OCCN5CCOCC5)ccc24)CCC3)nc1 | -2.59 |
| O=C1O[C@H]([C@@H](O)CO)C(O)=C1O [Vitamin C] | 0.66 |
| Clc1ccc(C(c2ccccc2Cl)C(Cl)Cl)cc1 (stereo not given) [Mitotane] | -0.287 |
| Cc1cccc(C)c1OCC(=O)N[C@@H](Cc1ccccc1)[C@@H](O)C[C@H](Cc1ccccc1)NC(=O)[C@H](C(C)C)N1CCCNC1=O [Lopinavir] | -1.99 |
| NS(=O)(=O)c1nn2cc(-c3ccccc3)nc2s1 | -3.3 |
| Nc1ccc(/N=N/c2ccccc2)c(N)n1 [Phenazopyridine HCl] | -2.55 |
| CCC(=O)O[C@]1(C(=O)SCF)[C@H](C)C[C@H]2[C@@H]3C[C@H](F)C4=CC(=O)C=C[C@]4(C)[C@@]3(F)[C@@H](O)C[C@@]21C [Fluticasone propionate] | 8.9 |
| Cc1[nH]nc2ccc(-c3cncc(OC[C@@H](N)Cc4ccccc4)c3)cc12 | < -6.01 |

| Compound | MBP+ mature oligodendrocyte number |
| --- | --- |
| NCCCS(=O)(=O)O [3-Amino-1-propanesulfonic acid sodium] | -1.14 |
| CC(C)[C@H](O)C(=O)N[C@@H](C)C(=O)N[C@@H]1C(=O)N(C)CCc2ccccc21 | 0.343 |
| CN(C)CCCc1cc(C(=O)Nc2ccc(-c3ccncc3)cc2)ccc1O | -2.53 |
| CC(C)c1cnn2c(NCc3ccccc3)cc(NCCCCCCN)nc12 | < -5.15 |
| NC1CONC1=O (racemic) [DL-Cycloserine] | 0.353 |
| O=S(=O)(c1cccc2cnccc12)N1CCCNCC1 [Fasudil (HA-1077) HCl] | -0.377 |
| COc1cc2nc(N3CCCN(C)CC3)nc(NC3CCN(Cc4ccccc4)CC3)c2cc1OC | < -3.85 and -4.64 |
| Cc1c(C(=O)N2CCOc3ccc(-c4ccc(N)nc4)cc3C2)ccc(S(C)(=O)=O)c1F | -0.945 |
| OC[C@H]1NC[C@@H](O)[C@@H]1O [1,4-Dideoxy-1,4-imino-D-arabinitol] | 1.55 |
| Cc1nc2c([nH]1)c(=O)n(C)c(=O)n2Cc1ccco1 [Furafylline] | 2.07 |
| CC(NCCc1ccc(O)cc1)C(O)c1ccc(O)cc1 (stereo not given) [Ritodrine HCl] | -0.164 |
| CC(NCCc1ccc(O)cc1)C(O)c1ccc(O)cc1 (stereo not given) [Ritodrine hydrochloride] | 1.15 |
| CCC1(C)CC(=O)NC1=O (stereo not given) [Ethosuximide] | 1.6 |
| CC(C)(O)CC(=O)NCCn1ccc2ncnc(Nc3ccc(Oc4cccc(C(F)(F)F)c4)c(Cl)c3)c21 | 5.98 |
| C[C@H](Nc1ncnc2nc[nH]c12)c1cc2cccc(Cl)c2c(=O)n1-c1ccccc1 | -4.92 |
| N#CC[C@H](C1CCCC1)n1cc(-c2ncnc3[nH]ccc23)cn1 | 2.47 |
| COc1cc(CNC(=O)CCCCCCC(C)C)ccc1O [Dihydrocapsaicin] | -2.68 |
| CCCc1nn(C)c2c(=O)[nH]c(-c3cc(S(=O)(=O)N4CCN(C)CC4)ccc3OCC)nc12 [Sildenafil citrate salt] | 0.156 |
| CCCc1nn(C)c2c(=O)[nH]c(-c3cc(S(=O)(=O)N4CCN(C)CC4)ccc3OCC)nc12 [Sildenafil Citrate] | 3.77 |
